Reference: US20250154219A1, “PEPTIDE ANALOGS” (Adepthera LLC, priority 2017, published 2025)

Key:
Type in all cases: cell-based
[1] = biological target: T1, CLR/RAMP1 receptor (Homo sapiens, UniProt O60894+Q16602); assay: CLR/RAMP1 cAMP receptor-activation assay (agonist mode);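 also: Dose–response over 10 threefold dilutions from 1.0 µM, run in duplicate, luminescent cAMP detection (RLU), activity scaled between vehicle control (0%) and maximal control (100%)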
[2] = biological target: CLR/RAMP2 receptor (Homo sapiens, UniProt O60895+Q16602); assay: CLR/RAMP2 arrestin assay, antagonist mode (ADM-stimulated); settings: for CLR/RAMP2 Max Activity % of positive control (antagonist): antagonist mode
Sequence of CLR/RAMP2 receptor (Q16602 23-461): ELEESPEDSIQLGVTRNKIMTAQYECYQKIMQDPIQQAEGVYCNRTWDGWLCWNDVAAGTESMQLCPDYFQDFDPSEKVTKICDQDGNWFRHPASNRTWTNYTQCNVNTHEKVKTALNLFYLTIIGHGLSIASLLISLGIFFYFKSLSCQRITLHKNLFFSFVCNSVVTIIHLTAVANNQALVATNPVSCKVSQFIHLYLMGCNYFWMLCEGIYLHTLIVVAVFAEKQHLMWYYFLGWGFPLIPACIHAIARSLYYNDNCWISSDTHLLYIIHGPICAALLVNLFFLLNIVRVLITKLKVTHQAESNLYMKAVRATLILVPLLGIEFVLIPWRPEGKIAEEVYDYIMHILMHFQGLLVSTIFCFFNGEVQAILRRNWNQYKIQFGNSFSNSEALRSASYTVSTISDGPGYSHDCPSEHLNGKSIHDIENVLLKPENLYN
Sequence of CLR/RAMP2 receptor (O60895 43-175): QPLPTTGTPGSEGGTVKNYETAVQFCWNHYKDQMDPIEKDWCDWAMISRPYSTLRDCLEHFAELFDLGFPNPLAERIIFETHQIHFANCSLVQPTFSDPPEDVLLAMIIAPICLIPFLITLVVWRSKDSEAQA

[3] = biological target: T1, CLR/RAMP1 receptor; assay: CLR/RAMP1 cAMP assay, antagonist mode (CGRP-stimulated); settings: for CLR/RAMP1 Max Activity % of positive control (antagonist): antagonist mode

T1 sequence (Q16602 23-461): as the sequence (Q16602 23-461) above
T1 sequence (O60894 27-148): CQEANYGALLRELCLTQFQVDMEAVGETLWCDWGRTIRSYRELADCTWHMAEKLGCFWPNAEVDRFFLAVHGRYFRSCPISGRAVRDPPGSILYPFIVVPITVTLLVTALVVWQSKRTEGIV

| SMILES | agonistic potency for CLR/RAMP1 and/or CLR/RAMP2 receptors, in words [1] | CLR/RAMP2 Max Activity % of positive control (antagonist) [2] | CLR/RAMP1 Max Activity % of positive control (antagonist) [3] | IC50 [2] | IC50 [3] |
| --- | --- | --- | --- | --- | --- |
| CSCC[C@H](NC(=O)[C@H](CC(C)C)NC(=O)[C@H](CCC(N)=O)NC(=O)[C@H](Cc1c[nH]c2ccccc12)NC(=O)[C@H](CC(C)C)NC(=O)[C@H](CCCNC(=N)N)NC(=O)[C@H](Cc1c[nH]cn1)NC(=O)[C@H](CO)NC(=O)[C@H](CC(C)C)NC(=O)[C@H](CC(N)=O)NC(=O)[C@H](CCC(N)=O)NC(=O)[C@@H](NC(=O)[C@H](CCC(N)=O)NC(=O)[C@@H]1CSSC[C@H](NC(=O)CNC(=O)[C@@H](NC(C)=O)C(C)C)C(=O)N[C@@H](C(C)C)C(=O)N[C@@H](CC(C)C)C(=O)NCC(=O)N[C@@H]([C@@H](C)O)C(=O)N1)C(C)C)C(=O)NCC(=O)N1CCC[C@H]1C(=O)N[C@@H](C)C(=O)NCC(=O)N[C@@H](CCCNC(=N)N)C(=O)N[C@@H](CCC(N)=O)C(=O)N[C@@H](CC(=O)O)C(=O)N[C@@H](CO)C(=O)N[C@@H](C)C(=O)N1CCC[C@H]1C(=O)N[C@H](C(=O)N[C@@H](CC(=O)O)C(=O)N1CCC[C@H]1C(=O)N[C@@H](CO)C(=O)N[C@@H](CO)C(=O)N1CCC[C@H]1C(=O)N[C@@H](Cc1c[nH]cn1)C(=O)N[C@@H](CO)C(=O)N[C@@H](Cc1ccc(O)cc1)C(N)=O)C(C)C [SEQ ID NO: 52, reference compound] | low potency ligands | – | – | – | – |
| CCCCCCCCCCCCCCCC(=O)NCCCC[C@H](NC(=O)COCCOCCN)C(=O)N[C@H](C(=O)N[C@@H](CCC(N)=O)C(=O)N[C@@H](CCCCN)C(=O)N[C@@H](CC(C)C)C(=O)N[C@@H](C)C(=O)N[C@@H](Cc1c[nH]cn1)C(=O)N[C@@H](CCC(N)=O)C(=O)N[C@H](C(=O)N[C@@H](Cc1ccc(O)cc1)C(=O)N[C@@H](CO)C(=O)N[C@@H](C)C(=O)N1CCC[C@H]1C(=O)N[C@H](C(=O)N[C@@H](CC(=O)O)C(=O)N1CCC[C@H]1C(=O)N[C@@H](CO)C(=O)N[C@@H](CO)C(=O)N1CCC[C@H]1C(=O)N[C@@H](Cc1c[nH]cn1)C(=O)N[C@@H](CO)C(=O)N[C@@H](Cc1ccc(O)cc1)C(N)=O)C(C)C)[C@@H](C)CC)C(C)C [SEQ ID NO: 114] | – | 87 % of positive control | 101 % of positive control | – | – |
| CC[C@H](C)[C@H](NC(=O)[C@H](CCCCN)NC(=O)[C@H](CO)NC(=O)[C@H](CCCNC(=N)N)NC(=O)[C@@H]1CCCN1C(=O)[C@H](C)NC(=O)[C@@H](NC(=O)[C@H](CC(N)=O)NC(=O)[C@H](CC(=O)O)NC(=O)[C@H](CCCCN)NC(=O)[C@H](CC(=O)O)NC(=O)[C@H](CCCCN)NC(=O)[C@H](CC(=O)O)NC(=O)[C@@H](NC(=O)[C@H](Cc1ccccc1)NC(=O)[C@H](CCCNC(=N)N)NC(=O)[C@H](CO)NC(=O)[C@H](CC(C)C)NC(=O)[C@H](CC(C)C)NC(=O)CNC(=O)[C@H](C)NC(=O)[C@H](CC(C)C)NC(=O)[C@H](CCCNC(=N)N)NC(=O)[C@H](Cc1c[nH]cn1)NC(=O)[C@@H](NC(=O)[C@@H](NC(C)=O)C(C)C)[C@@H](C)O)[C@@H](C)O)C(C)C)C(=O)N[C@@H](CO)C(=O)N1CCC[C@H]1C(=O)N[C@@H](CCC(N)=O)C(=O)NCC(=O)N[C@@H](Cc1ccc(O)cc1)C(N)=O [SEQ ID NO: 115, reference compound] | – | 100 % of positive control | 99 % of positive control | – | – |
| CC[C@H](C)[C@H](NC(=O)[C@H](CCCCN)NC(=O)[C@H](CO)NC(=O)[C@H](CCCNC(=N)N)NC(=O)[C@@H]1CCCN1C(=O)[C@H](C)NC(=O)[C@@H](NC(=O)[C@H](CC(N)=O)NC(=O)[C@H](CC(=O)O)NC(=O)[C@H](CCCCN)NC(=O)[C@H](CC(=O)O)NC(=O)[C@@H]1CCCN1C(=O)CNC(=O)[C@H](CCSC)NC(=O)[C@H](CC(C)C)NC(=O)[C@H](CCC(N)=O)NC(=O)[C@H](Cc1c[nH]c2ccccc12)NC(=O)[C@H](CC(C)C)NC(=O)[C@H](CCCNC(=N)N)NC(=O)[C@H](Cc1c[nH]cn1)NC(=O)[C@H](C)NC(=O)[C@H](CC(C)C)NC(=O)[C@H](CCCCN)NC(=O)[C@H](CCC(N)=O)NC(=O)[C@@H](NC(=O)[C@@H](NC(C)=O)[C@@H](C)O)C(C)C)C(C)C)C(=O)N[C@@H](CO)C(=O)N1CCC[C@H]1C(=O)N[C@@H](CCC(N)=O)C(=O)NCC(=O)N[C@@H](Cc1ccc(O)cc1)C(N)=O [SEQ ID NO: 116, reference compound] | – | 101 % of positive control | 101 % of positive control | – | – |
| CCCCCCCCCCCCCCCC(=O)N[C@@H](CCCCN)C(=O)N[C@H](C(=O)N[C@@H](CCC(N)=O)C(=O)N[C@@H](CCCCN)C(=O)N[C@@H](CC(C)C)C(=O)N[C@@H](C)C(=O)N[C@@H](Cc1c[nH]cn1)C(=O)N[C@@H](CCC(N)=O)C(=O)N[C@H](C(=O)N[C@@H](Cc1ccc(O)cc1)C(=O)N[C@@H](CCC(N)=O)C(=O)N[C@@H](Cc1ccccc1)C(=O)N[C@H](C(=O)N[C@@H](CC(=O)O)C(=O)N[C@@H](CCCCN)C(=O)N[C@@H](CC(=O)O)C(=O)N[C@H](C(=O)N[C@@H](C)C(=O)N1CCC[C@H]1C(=O)N[C@@H](CCCNC(=N)N)C(=O)N[C@@H](CO)C(=O)N[C@@H](CCCCN)C(=O)N[C@H](C(=O)N[C@@H](CO)C(=O)N1CCC[C@H]1C(=O)N[C@@H](CCC(N)=O)C(=O)NCC(=O)N[C@@H](Cc1ccc(O)cc1)C(N)=O)[C@@H](C)CC)C(C)C)[C@@H](C)O)[C@@H](C)CC)C(C)C [SEQ ID NO: 119] | – | 101 % of positive control | 95 % of positive control | – | – |
| CCCCCCCCCCCCCCCC(=O)N[C@@H](CCCCN)C(=O)N[C@H](C(=O)N[C@@H](CCC(N)=O)C(=O)N[C@@H](CC(N)=O)C(=O)N[C@@H](CC(C)C)C(=O)N[C@@H](CO)C(=O)N[C@@H](Cc1c[nH]cn1)C(=O)N[C@@H](CCCNC(=N)N)C(=O)N[C@@H](CC(C)C)C(=O)N[C@@H](Cc1c[nH]c2ccccc12)C(=O)N[C@@H](CCC(N)=O)C(=O)N[C@@H](CC(C)C)C(=O)N[C@@H](CCSC)C(=O)NCC(=O)N1CCC[C@H]1C(=O)N[C@@H](C)C(=O)NCC(=O)N[C@@H](CO)C(=O)N[C@@H](C)C(=O)N1CCC[C@H]1C(=O)N[C@H](C(=O)N[C@@H](CC(=O)O)C(=O)N1CCC[C@H]1C(=O)N[C@@H](CO)C(=O)N[C@@H](CO)C(=O)N1CCC[C@H]1C(=O)N[C@@H](Cc1c[nH]cn1)C(=O)N[C@@H](CO)C(=O)N[C@@H](Cc1ccc(O)cc1)C(N)=O)C(C)C)C(C)C [SEQ ID NO: 120] | – | 98 % of positive control | 94 % of positive control | – | – |
| CCCCCCCCCCCCCCCC(=O)N[C@@H](CCCCN)C(=O)N[C@H](C(=O)N[C@@H](CCC(N)=O)C(=O)N[C@@H](CCCCN)C(=O)N[C@@H](CC(C)C)C(=O)N[C@@H](C)C(=O)N[C@@H](Cc1c[nH]cn1)C(=O)N[C@@H](CCC(N)=O)C(=O)N[C@H](C(=O)N[C@@H](Cc1ccc(O)cc1)C(=O)N[C@@H](CO)C(=O)N[C@@H](C)C(=O)N1CCC[C@H]1C(=O)N[C@H](C(=O)N[C@@H](CC(=O)O)C(=O)N1CCC[C@H]1C(=O)N[C@@H](CO)C(=O)N[C@@H](CO)C(=O)N1CCC[C@H]1C(=O)N[C@@H](Cc1c[nH]cn1)C(=O)N[C@@H](CO)C(=O)N[C@@H](Cc1ccc(O)cc1)C(N)=O)C(C)C)[C@@H](C)CC)C(C)C [SEQ ID NO: 122] | – | 100 % of positive control | 95 % of positive control | – | – |
| CCCCCCCCCCCCCCCC(=O)N[C@@H](CCCCN)C(=O)N[C@H](C(=O)N[C@@H](CCC(N)=O)C(=O)N[C@@H](CCCCN)C(=O)N[C@@H](CC(C)C)C(=O)N[C@@H](C)C(=O)N[C@@H](Cc1c[nH]cn1)C(=O)N[C@@H](CCC(N)=O)C(=O)N[C@H](C(=O)N[C@@H](CO)C(=O)N[C@@H](C)C(=O)N1CCC[C@H]1C(=O)N[C@H](C(=O)N[C@@H](CC(=O)O)C(=O)N1CCC[C@H]1C(=O)N[C@@H](CO)C(=O)N[C@@H](CO)C(=O)N1CCC[C@H]1C(=O)N[C@@H](Cc1c[nH]cn1)C(=O)N[C@@H](CO)C(=O)N[C@@H](Cc1ccc(O)cc1)C(N)=O)C(C)C)[C@@H](C)CC)C(C)C [SEQ ID NO: 123] | – | 101 % of positive control | 94 % of positive control | – | – |
| CCCCCCCCCCCCCCCC(=O)N[C@@H](CCCCN)C(=O)N[C@H](C(=O)N[C@@H](CCC(N)=O)C(=O)N[C@@H](CCCCN)C(=O)N[C@@H](CC(C)C)C(=O)N[C@@H](C)C(=O)N[C@@H](Cc1c[nH]cn1)C(=O)N[C@@H](CCC(N)=O)C(=O)N[C@H](C(=O)N[C@@H](Cc1ccc(O)cc1)C(=O)N[C@@H](CCC(N)=O)C(=O)N[C@@H](Cc1ccccc1)C(=O)N[C@H](C(=O)N[C@@H](CC(=O)O)C(=O)N[C@@H](CCCCN)C(=O)N[C@@H](CO)C(=O)N[C@@H](C)C(=O)N1CCC[C@H]1C(=O)N[C@H](C(=O)N[C@@H](CC(=O)O)C(=O)N1CCC[C@H]1C(=O)N[C@@H](CO)C(=O)N[C@@H](CO)C(=O)N1CCC[C@H]1C(=O)N[C@@H](Cc1c[nH]cn1)C(=O)N[C@@H](CO)C(=O)N[C@@H](Cc1ccc(O)cc1)C(N)=O)C(C)C)[C@@H](C)O)[C@@H](C)CC)C(C)C [SEQ ID NO: 125] | – | 100 % of positive control | 93 % of positive control | – | – |
| CCCCCCCCCCCCCCCC(=O)N[C@@H](CCCCN)C(=O)N[C@H](C(=O)N[C@@H](CCC(N)=O)C(=O)N[C@@H](CCCCN)C(=O)N[C@@H](CC(C)C)C(=O)N[C@@H](CC(N)=O)C(=O)N[C@@H](Cc1ccccc1)C(=O)N[C@H](C(=O)N1CCC[C@H]1C(=O)N[C@H](C(=O)N[C@@H](CC(N)=O)C(=O)N[C@H](C(=O)NCC(=O)N[C@@H](CO)C(=O)N[C@@H](CCCCN)C(=O)N[C@@H](C)C(=O)N[C@@H](Cc1ccccc1)C(N)=O)C(C)C)[C@@H](C)O)C(C)C)C(C)C [SEQ ID NO: 142] | – | – | – | > 200 nM | < 0.5 nM |
